# Out of some 310,000 compounds screened, about 2,200 (0.71%) showed an effect of 50% or more. Effects have a minus sign here. The list shows a part of the results.
# Molecular target: human ether-à-go-go-related gene (hERG) potassium channel (human, UniProt Q12809)
# Assay: primary screen, population patch clamp on CHO cells stably expressing hERG
# Chain of human ether-à-go-go-related gene (hERG) potassium channel (Q12809 whole entry, looked up): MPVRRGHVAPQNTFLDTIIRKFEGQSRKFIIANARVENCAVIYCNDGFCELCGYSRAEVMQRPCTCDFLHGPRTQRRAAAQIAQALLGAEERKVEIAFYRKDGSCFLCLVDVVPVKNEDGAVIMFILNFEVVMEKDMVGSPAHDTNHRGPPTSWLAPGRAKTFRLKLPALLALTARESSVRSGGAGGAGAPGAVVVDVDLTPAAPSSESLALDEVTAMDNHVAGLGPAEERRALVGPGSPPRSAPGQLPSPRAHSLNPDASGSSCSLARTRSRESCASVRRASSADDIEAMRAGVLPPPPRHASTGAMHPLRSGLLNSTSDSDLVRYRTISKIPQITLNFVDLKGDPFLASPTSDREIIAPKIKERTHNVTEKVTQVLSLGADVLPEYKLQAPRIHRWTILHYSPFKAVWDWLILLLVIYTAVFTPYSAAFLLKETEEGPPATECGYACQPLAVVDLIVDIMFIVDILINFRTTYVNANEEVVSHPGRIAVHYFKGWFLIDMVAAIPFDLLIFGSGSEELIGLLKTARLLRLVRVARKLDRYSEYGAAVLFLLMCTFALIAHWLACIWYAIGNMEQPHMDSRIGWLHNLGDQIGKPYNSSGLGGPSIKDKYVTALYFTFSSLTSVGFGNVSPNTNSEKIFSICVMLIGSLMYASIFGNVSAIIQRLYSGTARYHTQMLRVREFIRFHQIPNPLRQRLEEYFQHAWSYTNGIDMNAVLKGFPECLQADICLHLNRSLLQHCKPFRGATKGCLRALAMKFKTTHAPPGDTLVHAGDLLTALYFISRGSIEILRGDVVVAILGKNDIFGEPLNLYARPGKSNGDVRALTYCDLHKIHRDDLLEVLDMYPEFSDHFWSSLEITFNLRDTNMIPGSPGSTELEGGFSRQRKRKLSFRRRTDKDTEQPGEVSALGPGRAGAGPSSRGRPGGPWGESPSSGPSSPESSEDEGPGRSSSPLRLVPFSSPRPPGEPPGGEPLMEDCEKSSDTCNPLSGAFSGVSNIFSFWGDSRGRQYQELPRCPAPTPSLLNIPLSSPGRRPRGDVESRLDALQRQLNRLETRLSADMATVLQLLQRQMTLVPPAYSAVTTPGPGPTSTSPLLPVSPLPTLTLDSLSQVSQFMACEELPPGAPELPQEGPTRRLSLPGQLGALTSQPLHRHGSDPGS
row,SMILES,"hERG current change (%, negative = inhibition) at 1uM [%]"
1,CCN1c2ccccc2N(C)C1(C)c1ccccc1 (centres unmarked),8.62
2,CCc1ccc(OCC(=O)Oc2ccc([N+](=O)[O-])cc2)cc1,15.6
3,Cc1ccc(Nc2cc(-n3cccn3)ncn2)c(C)c1,4.04
4,N#C/C(=C\c1ccc(Cl)cc1Cl)c1n[nH]c(Cn2cncn2)n1,1.9
5,CCOC(=O)c1c(C)[nH]c(N=Nc2cc(C(=O)O)cc(C(=O)O)c2)c1C,10.6
6,Cc1nc(CNS(=O)(=O)c2cccc(F)c2)cs1,6.27
7,O=C(CSc1ccc(-c2ccccc2)nn1)NC1CCCC1,9.58
8,CCCC(=O)c1c(O)[nH]c(=O)[nH]c1=O,11.3
9,Cc1cccc(C(=O)Oc2ccc(/C=N/NC(=O)c3cc(O)cc(O)c3)cc2)c1,20.7
10,CCOC(=O)N1CCC(N2C(=O)c3ccccc3C2Nc2ccccc2)CC1 (centres unmarked),6.14
11,CSc1sc(C(=O)NNC(C)=O)c2c1C1(CCC2)SCCS1,7.14
12,CC(C)Oc1ccc(/C=C/C(=O)NCC2COc3ccccc3O2)cc1 (centres unmarked),12.2
13,CC(=O)Nc1ccc(Sc2ncccc2C(=O)Nc2ccc(F)cc2)cn1,15.5
14,O=C(c1ccccc1Br)N1CCC(c2nc3ccccc3s2)CC1,-1.62
15,COc1cc(C2OC(=O)C3C(c4ccc(OC(C)=O)c(OC)c4)OC(=O)C23)ccc1OC(C)=O (centres unmarked),12.4
16,CCCCN1C(=O)CN(CCc2ccccc2)C(=O)C1c1ccc(OC)cc1 (centres unmarked),10.3
17,CCCCN1C(=O)C(O)(CC(=O)c2ccccn2)c2ccccc21 (centres unmarked),13.7
18,CN(CC1COCCO1)c1nc2nonc2nc1N1CCSCC1 (centres unmarked),7.08
19,COCOc1ccc(/C=C2/Oc3cc(OCOC)cc(OCOC)c3C2=O)c(OCOC)c1,15.2
20,COc1ccccc1N1CC(C(=O)Nc2ccc(S(=O)(=O)N3CCOCC3)cc2)CC1=O (centres unmarked),9.13
21,Cc1cc(C)nc(N(C#N)CC(=O)N2CCC(C(N)=O)CC2)n1,15.2
22,Cn1cnnc1SCC(=O)Nc1ccc2ccccc2c1,7.13
23,CC1(C)CC(=O)C2=C(C1)OC(N)=C(C#N)C2c1cccs1 (centres unmarked),12
24,Cc1ccc(C)c(Cn2nnc3c(=O)[nH]c(C(=O)NCc4ccco4)nc32)c1,2.49
25,CC(C)c1ccc(/C=C/C(=O)NC2CCCCC2)cc1,10.9
26,COc1cccc(NS(=O)(=O)c2cn(C)c(=O)n(C)c2=O)c1,13.4
